The results in this text go back to patent US20250270339A1 (Alector, published 2025).

In experiment [1] the target is T1, Full length human TfR on CHO cells (human, UniProt P02786).
T1 construct: also called CHO + huTfR; CHO + hTfR
Description: FACS MFI.

Experiment [2] has as its target T2, Mouse TfR (muTfR) ECD Avi-His (mouse, UniProt Q62351, biotin on the Avi tag (BirA) where captured on streptavidin).
T2 construct: also called MuTfR Avi-His
Description: ELISA OD450.

The target of the next experiment is T3, Cyno TfR ECD Avi-His (cynomolgus macaque, UniProt Q5RDH6 89-760 (Pongo abelii entry), biotin on the Avi tag (BirA) where captured on streptavidin).
T3 construct: also called Cyno TfR Avi-His; cyno TfR Avi-His
T3 chain: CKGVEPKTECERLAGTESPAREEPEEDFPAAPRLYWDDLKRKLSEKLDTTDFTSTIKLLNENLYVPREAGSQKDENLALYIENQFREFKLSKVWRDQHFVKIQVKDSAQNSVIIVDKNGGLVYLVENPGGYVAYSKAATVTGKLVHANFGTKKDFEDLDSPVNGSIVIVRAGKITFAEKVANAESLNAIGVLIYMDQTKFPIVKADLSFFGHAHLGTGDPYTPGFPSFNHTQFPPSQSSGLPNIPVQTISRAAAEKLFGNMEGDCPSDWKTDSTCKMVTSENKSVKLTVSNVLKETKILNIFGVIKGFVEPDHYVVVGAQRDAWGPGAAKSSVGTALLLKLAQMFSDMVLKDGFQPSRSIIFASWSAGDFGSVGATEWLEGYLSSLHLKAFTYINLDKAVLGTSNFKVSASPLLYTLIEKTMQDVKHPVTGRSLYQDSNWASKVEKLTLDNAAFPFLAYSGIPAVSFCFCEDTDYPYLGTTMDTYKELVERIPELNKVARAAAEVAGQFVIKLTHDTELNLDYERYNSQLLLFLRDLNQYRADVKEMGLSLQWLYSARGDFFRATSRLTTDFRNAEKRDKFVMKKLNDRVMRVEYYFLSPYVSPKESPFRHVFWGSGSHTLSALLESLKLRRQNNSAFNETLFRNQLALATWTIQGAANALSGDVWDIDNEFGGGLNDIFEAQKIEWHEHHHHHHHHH
Description: ELISA OD450.

Experiment [3] has as its target T4, huTfR Apical Domain-Avi-His (human, biotin on the Avi tag (BirA) where captured on streptavidin).
T4 construct: also called huTfR apical Avi-His; hTfR Apical
T4 chain: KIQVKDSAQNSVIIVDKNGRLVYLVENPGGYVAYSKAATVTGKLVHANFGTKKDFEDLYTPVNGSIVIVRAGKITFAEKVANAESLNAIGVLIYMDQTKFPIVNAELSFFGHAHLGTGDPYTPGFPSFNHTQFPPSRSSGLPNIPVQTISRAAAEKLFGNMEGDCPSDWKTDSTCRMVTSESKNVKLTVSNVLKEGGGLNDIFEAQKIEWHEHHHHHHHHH
Description: ELISA OD450.

T1 sequence (P02786 whole entry): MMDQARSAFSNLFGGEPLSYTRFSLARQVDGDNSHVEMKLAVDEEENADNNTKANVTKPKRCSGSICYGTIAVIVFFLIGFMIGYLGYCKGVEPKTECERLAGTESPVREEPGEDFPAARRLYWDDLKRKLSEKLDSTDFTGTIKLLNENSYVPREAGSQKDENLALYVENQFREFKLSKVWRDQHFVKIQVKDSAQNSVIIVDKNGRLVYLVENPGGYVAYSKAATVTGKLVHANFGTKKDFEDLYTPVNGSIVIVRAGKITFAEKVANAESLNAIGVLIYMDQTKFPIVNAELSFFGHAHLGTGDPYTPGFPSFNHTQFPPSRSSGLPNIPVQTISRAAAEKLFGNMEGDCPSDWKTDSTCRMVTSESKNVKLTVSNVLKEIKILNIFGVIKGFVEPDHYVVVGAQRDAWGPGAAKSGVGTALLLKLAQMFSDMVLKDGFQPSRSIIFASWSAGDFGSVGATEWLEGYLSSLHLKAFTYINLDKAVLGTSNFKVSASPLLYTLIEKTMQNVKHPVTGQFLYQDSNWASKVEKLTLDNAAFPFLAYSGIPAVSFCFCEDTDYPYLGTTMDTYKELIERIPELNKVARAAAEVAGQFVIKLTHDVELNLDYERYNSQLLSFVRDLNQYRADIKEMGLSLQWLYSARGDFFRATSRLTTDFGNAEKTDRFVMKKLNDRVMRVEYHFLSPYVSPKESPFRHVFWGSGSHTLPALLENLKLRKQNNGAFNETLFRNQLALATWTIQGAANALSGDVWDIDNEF

B1: TfR16 2+1 anti-TfR bispecific antibody (bispecific antibody, human IgG1, kappa)
heavy 1: EVRLLESGGGLVQPGGSLRLSCAASGFTFSNYAMGWVRQAPGKGLEWVSAISGSGGSTYYADSVKGRFTTSRDDSKNALYLQMNSLRAEDTAVYYCARGGPGWYAADVWGQGTTVTVSSASTKGPSVFPLAPSSKSTSGGTAALGCLVKDYFPEPVTVSWNSGALTSGVHTFPAVLQSSGLYSLSSVVTVPSSSLGTQTYICNVNHKPSNTKVDKKV[here human IgG1 Fc with changes without letters]GGGGSGGGGSGGGGSEVQLQQSGTVLARPGASVKMSCKTSGYSFSSYWMHWVKQRPGQGLEWIGTIYPGNSDTIYNQNFKGKAKLTAVTSASTAYMELSSLTNEDSAVYYCSTIYYFSNWGQGTTLTVSSGGSEGKSSGSGSESKSTGGSDIKMTQSPSPMFASLGERVTITCKASQDINSYLSWFQQKPGKSPKTLIYRANRLLDGVPSRFSGSGSGQDYSLTISSLDYEDVGIYYCLQYDVFPYTFGGGTKLEIK
heavy 2: EVRLLESGGGLVQPGGSLRLSCAASGFTFSNYAMGWVRQAPGKGLEWVSAISGSGGSTYYADSVKGRFTTSRDDSKNALYLQMNSLRAEDTAVYYCARGGPGWYAADVWGQGTTVTVSS[here human IgG1 constant region with changes without letters]
light: DIQMTQSPSSLSASVGDRVTITCRASQSISSYLNWYQQKPGKAPKLLIYAASSLQSGVPSRFSGSGSGTDFTLTISSLQPEDFATYYCQQADLPAFAFGGGTKVEIKRTVAAPSVFIFPPSDEQLKSGTASVVCLLNNFYPREAKVQWKVDNALQSGNSQESVTEQDSKDSTYSLSSTLTLSKADYEKHKVYACEVTHQGLSSPVTKSFNRGEC
notes: 2+1
Turning to B1, the “fold over CHO parental” value in experiment [1] was 1000 fold. In addition, the “fold over isotype control” value turned out to be 1 fold in experiment [2], 1 fold with Cyno TfR ECD Avi-His and 39 fold in experiment [3].

B2: TfR22 2+1 anti-TfR bispecific antibody (bispecific antibody, human IgG1, kappa)
heavy 1: EVRLLESGGGLVQPGGSLRLSCAASGFTFSNYAMGWVRQAPGKGLEWVSAISGSGGSTYYADSVKGRFTTSRDDSKNALYLQMNSLRAEDTAVYYCARGGPGWYAADVWGQGTTVTVSSASTKGPSVFPLAPSSKSTSGGTAALGCLVKDYFPEPVTVSWNSGALTSGVHTFPAVLQSSGLYSLSSVVTVPSSSLGTQTYICNVNHKPSNTKVDKKV[here human IgG1 Fc with changes without letters]GGGGSGGGGSGGGGSDVQLQESGPGLVKPSQSLSLTCTVTGYSITSDYAWNWIRQFPGNKLEWMGYISYSGSTRYNPSLKSRISITRDTSKNQFFLQLNSVTTEDTATYYCTSWGYRYLEDYWGQGTSVTVSAGGSEGKSSGSGSESKSTGGSQIVLTQSPAIMSASPGERVTMTCSASSSISSMHWYQQKPGTSPKKWIYDTSKLASGVPARFSGSGSGTSYSLTISSMEAEDAATYYCHQRSSYPWTFGGGTKLEIK
heavy 2: EVRLLESGGGLVQPGGSLRLSCAASGFTFSNYAMGWVRQAPGKGLEWVSAISGSGGSTYYADSVKGRFTTSRDDSKNALYLQMNSLRAEDTAVYYCARGGPGWYAADVWGQGTTVTVSS[here human IgG1 constant region with changes without letters]
light: DIQMTQSPSSLSASVGDRVTITCRASQSISSYLNWYQQKPGKAPKLLIYAASSLQSGVPSRFSGSGSGTDFTLTISSLQPEDFATYYCQQADLPAFAFGGGTKVEIKRTVAAPSVFIFPPSDEQLKSGTASVVCLLNNFYPREAKVQWKVDNALQSGNSQESVTEQDSKDSTYSLSSTLTLSKADYEKHKVYACEVTHQGLSSPVTKSFNRGEC
notes: 2+1
For the molecule B2, the “fold over CHO parental” value in experiment [1] worked out at 442 fold. Moreover, the “fold over isotype control” value in experiment [2] is 2 fold; with Cyno TfR ECD Avi-His, 1 fold; in experiment [3], 40 fold.

B3: TfR23 2+1 anti-TfR bispecific antibody (bispecific antibody, human IgG1, kappa)
heavy 1: EVRLLESGGGLVQPGGSLRLSCAASGFTFSNYAMGWVRQAPGKGLEWVSAISGSGGSTYYADSVKGRFTTSRDDSKNALYLQMNSLRAEDTAVYYCARGGPGWYAADVWGQGTTVTVSSASTKGPSVFPLAPSSKSTSGGTAALGCLVKDYFPEPVTVSWNSGALTSGVHTFPAVLQSSGLYSLSSVVTVPSSSLGTQTYICNVNHKPSNTKVDKKV[here human IgG1 Fc with changes without letters]GGGGSGGGGSGGGGSDVQLQESGPGLVKPSQSLSLTCTVTGYSITSDYAWNWIRQFPGNKLEWMGYISYSGSTSYNPSLKSRISITRDTSKNQFFLQLNSVTTEDTATYYCTSWGYRYLEDYWGQGTSVTVSSGGSEGKSSGSGSESKSTGGSQIVLTQSPAIMSASPGERVTMTCSASSSISSLHWYQQKPGTSPKKWIYDTSKLASGVPARFSGSGSGTSYSLAISSMEAEDAATYYCHQRSSYPWTFGGGTKLEIK
heavy 2: EVRLLESGGGLVQPGGSLRLSCAASGFTFSNYAMGWVRQAPGKGLEWVSAISGSGGSTYYADSVKGRFTTSRDDSKNALYLQMNSLRAEDTAVYYCARGGPGWYAADVWGQGTTVTVSS[here human IgG1 constant region with changes without letters]
light: DIQMTQSPSSLSASVGDRVTITCRASQSISSYLNWYQQKPGKAPKLLIYAASSLQSGVPSRFSGSGSGTDFTLTISSLQPEDFATYYCQQADLPAFAFGGGTKVEIKRTVAAPSVFIFPPSDEQLKSGTASVVCLLNNFYPREAKVQWKVDNALQSGNSQESVTEQDSKDSTYSLSSTLTLSKADYEKHKVYACEVTHQGLSSPVTKSFNRGEC
notes: 2+1
Turning to B3, the “fold over CHO parental” value in experiment [1] came out at 278 fold. For the same molecule, the “fold over isotype control” value in experiment [2] amounted to 1 fold; in the experiment with Cyno TfR ECD Avi-His it was 1 fold; in experiment [3], 40 fold.

B4: TfR28 2+1 anti-TfR bispecific antibody (bispecific antibody, human IgG1, kappa)
heavy 1: EVRLLESGGGLVQPGGSLRLSCAASGFTFSNYAMGWVRQAPGKGLEWVSAISGSGGSTYYADSVKGRFTTSRDDSKNALYLQMNSLRAEDTAVYYCARGGPGWYAADVWGQGTTVTVSSASTKGPSVFPLAPSSKSTSGGTAALGCLVKDYFPEPVTVSWNSGALTSGVHTFPAVLQSSGLYSLSSVVTVPSSSLGTQTYICNVNHKPSNTKVDKKV[here human IgG1 Fc with changes without letters]GGGGSGGGGSGGGGSDVQLQESGPGLVKPSQSLSLTCTVTGYSITSDYAWNWIRQFPGNKLEWMGYISYSGSTSYNPSLRSRISITRDTSKNQFFLQLNSVTTEDTATYYCAIRGYRYEEDYWGQGTTLTVSSGGSEGKSSGSGSESKSTGGSQIVLTQSPAIMSASPREKVTMTCSASSSISSMHWYQQKPGTSPKRWIYDTSKLASGVPARFSGSGSGTSYSLTISSMEAEDAATYYCHQRSSYPWTFGGGTKLEIK
heavy 2: EVRLLESGGGLVQPGGSLRLSCAASGFTFSNYAMGWVRQAPGKGLEWVSAISGSGGSTYYADSVKGRFTTSRDDSKNALYLQMNSLRAEDTAVYYCARGGPGWYAADVWGQGTTVTVSS[here human IgG1 constant region with changes without letters]
light: DIQMTQSPSSLSASVGDRVTITCRASQSISSYLNWYQQKPGKAPKLLIYAASSLQSGVPSRFSGSGSGTDFTLTISSLQPEDFATYYCQQADLPAFAFGGGTKVEIKRTVAAPSVFIFPPSDEQLKSGTASVVCLLNNFYPREAKVQWKVDNALQSGNSQESVTEQDSKDSTYSLSSTLTLSKADYEKHKVYACEVTHQGLSSPVTKSFNRGEC
notes: 2+1
B4: the “fold over CHO parental” value in experiment [1] is 438 fold. For the same molecule, the entries for the “fold over isotype control” value (in experiment [2]; with Cyno TfR ECD Avi-His; in experiment [3]) were 1 fold, 1 fold and 39 fold, respectively.

B5: TfR17 2+1 anti-TfR bispecific antibody (bispecific antibody, human IgG1, kappa)
heavy 1: EVRLLESGGGLVQPGGSLRLSCAASGFTFSNYAMGWVRQAPGKGLEWVSAISGSGGSTYYADSVKGRFTTSRDDSKNALYLQMNSLRAEDTAVYYCARGGPGWYAADVWGQGTTVTVSSASTKGPSVFPLAPSSKSTSGGTAALGCLVKDYFPEPVTVSWNSGALTSGVHTFPAVLQSSGLYSLSSVVTVPSSSLGTQTYICNVNHKPSNTKVDKKV[here human IgG1 Fc with changes without letters]GGGGSGGGGSGGGGSDVQLQESGPGLVKPSQSLSLTCTVTGYSITSDYAWNWIRQFPGNKLEWMGYISYSGSTSYNPSLKSRISITRDTSKNQFFLQLNSVTTEDTATYYCASWGYRYLEDYWGQGTSVTVSSGGSEGKSSGSGSESKSTGGSQIVLTQSPAIMSASPGEKVTMTCSASSSISSMHWYQQKPGTSPKRWISDTSKLASGIPARFSGSGSGTSYSLTISSMAAEDAAAYYCHQRSSYPWTFGGGTKLEIK
heavy 2: EVRLLESGGGLVQPGGSLRLSCAASGFTFSNYAMGWVRQAPGKGLEWVSAISGSGGSTYYADSVKGRFTTSRDDSKNALYLQMNSLRAEDTAVYYCARGGPGWYAADVWGQGTTVTVSS[here human IgG1 constant region with changes without letters]
light: DIQMTQSPSSLSASVGDRVTITCRASQSISSYLNWYQQKPGKAPKLLIYAASSLQSGVPSRFSGSGSGTDFTLTISSLQPEDFATYYCQQADLPAFAFGGGTKVEIKRTVAAPSVFIFPPSDEQLKSGTASVVCLLNNFYPREAKVQWKVDNALQSGNSQESVTEQDSKDSTYSLSSTLTLSKADYEKHKVYACEVTHQGLSSPVTKSFNRGEC
notes: 2+1
Consider B5, for which the “fold over CHO parental” value in experiment [1] was 305 fold. Further, the “fold over isotype control” value in experiment [2] is 1 fold; in the experiment with Cyno TfR ECD Avi-His, 1 fold; in experiment [3] it was 38 fold.
